Assay results reported in publication PMC4336329 (PLoS ONE, 2015).
About 14,000 (4.5%) of roughly 310,000 compounds showed an effect of 50% or more. Effects have a minus sign here. This is one part of the list.

target: human ether-à-go-go-related gene (hERG) potassium channel (human, UniProt Q12809); assay: primary screen, population patch clamp on CHO cells stably expressing hERG
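Also: peak tail current of the secondary pulse compared with the same well before compound.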

human ether-à-go-go-related gene (hERG) potassium channel, sequence (Q12809 whole entry, looked up): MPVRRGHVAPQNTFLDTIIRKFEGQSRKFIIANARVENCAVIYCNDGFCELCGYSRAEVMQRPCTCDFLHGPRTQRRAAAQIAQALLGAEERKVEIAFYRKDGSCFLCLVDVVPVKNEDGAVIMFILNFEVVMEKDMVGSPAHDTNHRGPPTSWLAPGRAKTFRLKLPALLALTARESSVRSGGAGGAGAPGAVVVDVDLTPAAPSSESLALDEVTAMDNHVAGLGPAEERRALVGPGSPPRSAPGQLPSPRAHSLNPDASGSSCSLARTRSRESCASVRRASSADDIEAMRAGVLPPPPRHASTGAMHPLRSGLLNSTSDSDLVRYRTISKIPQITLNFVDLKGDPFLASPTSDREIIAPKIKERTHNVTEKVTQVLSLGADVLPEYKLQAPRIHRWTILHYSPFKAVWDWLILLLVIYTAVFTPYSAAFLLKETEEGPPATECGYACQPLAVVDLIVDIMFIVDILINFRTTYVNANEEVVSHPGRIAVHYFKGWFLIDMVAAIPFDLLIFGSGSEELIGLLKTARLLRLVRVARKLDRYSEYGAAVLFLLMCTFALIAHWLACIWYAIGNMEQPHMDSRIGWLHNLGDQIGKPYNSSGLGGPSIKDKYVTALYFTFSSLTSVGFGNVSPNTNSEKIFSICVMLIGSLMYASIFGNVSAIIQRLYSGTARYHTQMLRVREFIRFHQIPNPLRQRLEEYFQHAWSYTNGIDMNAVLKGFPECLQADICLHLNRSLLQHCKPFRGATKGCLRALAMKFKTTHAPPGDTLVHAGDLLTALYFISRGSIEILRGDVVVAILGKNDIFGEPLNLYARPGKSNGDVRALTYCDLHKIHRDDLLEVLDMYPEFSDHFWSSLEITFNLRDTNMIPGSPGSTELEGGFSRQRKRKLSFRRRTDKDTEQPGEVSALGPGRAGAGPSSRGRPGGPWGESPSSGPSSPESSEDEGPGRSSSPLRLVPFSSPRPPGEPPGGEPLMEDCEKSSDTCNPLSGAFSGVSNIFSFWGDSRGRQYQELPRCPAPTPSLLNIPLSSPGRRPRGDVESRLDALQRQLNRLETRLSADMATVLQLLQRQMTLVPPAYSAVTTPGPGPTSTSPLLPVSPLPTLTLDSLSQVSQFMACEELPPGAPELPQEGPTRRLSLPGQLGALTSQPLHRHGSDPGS

| SMILES | hERG current change (%, negative = inhibition) at 10uM [%] |
| --- | --- |
| CSC1=N/C(=C\c2ccccc2C)C(=O)S1 | 23.9 |
| COc1cccc(N/C(N)=N/c2nc(C)cc(=O)[nH]2)c1 | 12.7 |
| COc1ccc(CC(=O)NNc2ncnc3c2cnn3Cc2ccccc2)cc1OC | 14.3 |
| COc1ccc(C(=O)N/C(=C\c2ccccc2)C(=O)Nc2cccc(C(=O)O)c2)cc1 | 20.9 |
| COc1ccc(S(=O)(=O)N2CCN(C(=O)c3cc(-c4ccc(C)cc4)n[nH]3)CC2)cc1 | -12.9 |
| Cc1nc(-c2ccccc2)sc1-c1nnc(C2CC2)o1 | -22.6 |
| c1cc(-c2cccs2)nc(-c2cccs2)c1 | -3.77 |
| CC(C)c1ccc(N2C(=O)NC(=O)/C(=C\C=C\c3ccco3)C2=O)cc1 | 16.4 |
| COC(=O)CN1C(=O)C2(OCCCO2)c2ccccc21 | -7.31 |
| CC1CN(C(=O)Cn2cc(S(=O)(=O)CC(=O)N(C)c3ccccc3)c3ccccc32)CC(C)O1 (stereo not drawn) | 16.3 |
| Cc1cccc(OCC(=O)NCc2ccccc2)c1 | 13.6 |
| COCCN(C(=O)COC(=O)CCn1c(C)csc1=O)c1c(N)n(Cc2ccccc2)c(=O)[nH]c1=O | 12.7 |
| CCOC(=O)C(=CNNc1c(C)csc1C(=O)OC)C(=O)OCC | 14.9 |
| N#Cc1c2n(c3c(=O)n(Cc4ccccc4Cl)cnc13)CCCCC2 | -18.8 |
| CCCn1c2ccccc2c2nnc(SCC(=O)Nc3nnc(CC(=O)OCC)s3)nc21 | -6.4 |
| Cc1ccc(OC(C)C(=O)N2CCCc3ccccc32)cc1 (stereo not drawn) | -16.3 |
| CN1CCCN(c2ncnc3scc(-c4ccc(F)cc4)c23)CC1 | -21.9 |
| C=C(C)Cn1c(CCNC(=O)CC)nc2ccccc21 | -5.61 |
| CCN(c1ccccc1)S(=O)(=O)c1ccc(C(=O)N(CCCN(C)C)c2nc3c(C)cccc3s2)cc1.Cl | -34.7 |
| Cc1ccc(C(=O)N2CCN(c3ccc(C(F)(F)F)cn3)CC2)cc1 | -0.62 |
| CN(C)S(=O)(=O)c1cccc(NC(=O)COC(=O)/C=C/c2ccc([N+](=O)[O-])cc2)c1 | -20.8 |
| CCSc1nc2sc3c(c2c(=O)[nH]1)CCc1ccccc1-3 | 6.61 |

| SMILES | hERG current change (%, negative = inhibition) at 10uM [%] |
| --- | --- |
| Cc1cc(Br)ccc1OCCNCc1ccccc1.O=C(O)C(=O)O | -14.6 |
| Cc1cccc(C(=O)OCc2cc(=O)oc3c(C)c(C)ccc23)c1O | -5.7 |
| Cc1c(Cl)ccc2c(C(N)=O)cc(-c3ccccn3)nc12 | 23.6 |
| O=C(Oc1cccc(-n2cnnn2)c1)C1CCCCC1 | -6.63 |
| CCOC(=O)C1CCN(C(=O)C(C)Oc2ccc(Br)cc2)CC1 (stereo not drawn) | -16.1 |
| C=CCNCC(=O)NN=C(c1ccccc1)c1ccccc1 | -68.5 |
| Cc1nc(CS(=O)c2ccccc2)cc(N2CCOCC2)n1 (stereo not drawn) | 7.23 |
| CC(=O)Nc1ccc(S(=O)(=O)NC(C)C(=O)NC(C)c2ccccc2)cc1 (stereo not drawn) | 15.3 |
| O=C(CSc1ccc(-c2ccco2)nn1)Nc1ccc(F)cc1F | -65.8 |
| COC(=O)[C@@]1(Cc2ccc(F)cc2)[C@H]2c3cc(C(=O)N4CCCC4)n(CCO)c3C[C@H]2CN1C(=O)c1ccccc1 | -51.4 |
| CN(C1CCCCC1)S(=O)(=O)CCNC(=O)c1ccccc1 | 4.76 |
| COc1cc(NC(=O)c2ccc3c(=O)n(Cc4ccco4)c(=S)[nH]c3c2)cc(OC)c1OC | 8.2 |
| CCOC(=O)Cc1csc(N/C(=N/S(=O)(=O)c2ccc(Cl)cc2)c2ccccc2)n1 | 12.9 |
| Cc1ccc(-c2csc3ncn(Cc4ccc(C(=O)O)cc4)c(=O)c23)cc1C | 4.52 |
| N#Cc1cc2c(nc1Cl)CCC2 | 8.4 |
| CC1(C)C=Cc2cc3ccc(=O)oc3cc2O1 | 3.51 |
| O=C(OCc1cc(=O)n2ccsc2n1)c1ccc(O)cc1O | -12.7 |
| COc1ccc(-c2cc(C(F)(F)F)nc(-n3ccnc3)n2)cc1 | 7.99 |
| COc1ccc(NC(=O)CC2C(=O)N(C)C(=S)N2CCc2ccccc2F)cc1 (stereo not drawn) | -0.536 |
| COc1cccc(-c2nc(N3CCCCC3)c3ccccc3n2)c1O | 18 |
| COc1cc2c(cc1OC)CN(C(=O)CN1C(=O)c3ccc([N+](=O)[O-])cc3C1=O)CC2 | 2.4 |
| O=C(COc1cccnc1[N+](=O)[O-])NCc1ccco1 | -11.1 |

| SMILES | hERG current change (%, negative = inhibition) at 10uM [%] |
| --- | --- |
| COc1ccccc1N1CCN(C(=O)c2ccc3c(c2)CCN3S(=O)(=O)c2ccccc2)CC1 | 7.45 |
| CCOc1ccc(CN2CCN(CCCc3ccccc3)CC2CCO)cc1 (stereo not drawn) | -76 |
| CCO[C@@H]1OC(C(=O)N2CCOCC2)=C[C@H](c2cn(C(C)=O)c3ccccc23)[C@H]1CCCO | -20.3 |
| O=[N+]([O-])c1cccnc1SCc1c(F)cccc1Cl | 11 |
| CSc1nc(NNC=O)cc(Oc2ccc(NC(C)=O)cc2)n1 | 14.8 |
| Cc1ccc(S(=O)(=O)N2CCC(C(=O)OC(C)C(=O)NCc3ccc4c(c3)OCO4)CC2)cc1 (stereo not drawn) | -37.2 |
| Cn1nccc1C(=O)N1CCCC(C(=O)c2ccc(C(F)(F)F)cc2)C1 (stereo not drawn) | 6.14 |
| O=C(O)C1C2CC2CN1C(=O)c1ccc(Cl)cc1Cl (stereo not drawn) | 17 |
| CS(=O)(=O)c1nc(-c2ccco2)cc(C(F)(F)F)n1 | 0.442 |
| CC1CCCC(C)N1C(=O)COc1ccccc1F (stereo not drawn) | 13.2 |
| Cc1ccc(C(OC(=O)c2ccco2)C(=O)NC2CCCC2)cc1 (stereo not drawn) | 10.2 |
| COc1ccc(CCNC(=O)CC2C(=O)NCCN2CC(C)(C)C)cc1 (stereo not drawn) | -4.67 |
| O=C(CN1C(=O)NC(c2ccccc2)(c2ccccc2)C1=O)N1CCN(c2ccc(F)cc2)CC1 | -68.4 |
| COc1ccc(-n2c(C)cc(C(=O)CSc3nnc(-c4cccs4)o3)c2C)cc1 | -20.7 |
| Clc1ccc(-c2cn3c(n2)SCC3)cc1 | -19.9 |
| O=C(Cc1ccccc1)N/N=C/c1ccc(-c2ccc([N+](=O)[O-])cc2)o1 | 4.21 |
| COc1c2c(nc3ccccc13)OC(C(C)(O)CO)C2 (stereo not drawn) | 10 |
| Cc1ccccc1CN(C)CC(=O)Nc1ccccc1Oc1ccccc1 | 15.6 |
| O=C(CN(C(=O)C1COc2ccccc2O1)c1ccccc1)NCC1CCCO1 (stereo not drawn) | -15.6 |
| Cc1cccc(NC(=O)Cn2c(O)c(N=NC(=O)c3ccncc3)c3ccccc32)c1 | 4 |
| COc1ccc(Nc2nc(-c3cccs3)nc3ccccc23)cc1S(=O)(=O)N1CCOCC1 | -17.5 |
| COC(=O)c1ccc(C23CC4(C2)[C@H](CN(Cc2ccc(C(F)(F)F)cc2)[C@@H]4c2ccccc2)C3c2ccccc2)cc1 (stereo partly drawn) | 7.29 |

| SMILES | hERG current change (%, negative = inhibition) at 10uM [%] |
| --- | --- |
| COc1ccc(NC(=O)Cn2nnc(C(=O)NCc3ccco3)c2N)c(OC)c1 | 20 |
| CCOc1ccc(NC(=O)CSc2n[nH]c(N)n2)c([N+](=O)[O-])c1 | -6.62 |
| Cc1ccc2[nH]cc(C(=O)CN3CCOCC3)c2c1 | 19.1 |
| O=C(N/N=C/c1ccc(Cl)cc1Cl)c1ccc2nc[nH]c2c1 | 18 |
| N#Cc1cc2ccccc2nc1SCC(=O)NC1CC1 | 4.58 |
| c1ccc(-n2nnnc2Oc2ccc(-n3ccnc3)cc2)cc1 | -54 |
| COc1ccc(N(CC(=O)NCCSc2ccccn2)S(=O)(=O)c2ccc(C)cc2)cc1OC | -17.7 |
| CC(OC(=O)/C=C/c1ccccc1Cl)C(=O)NC1CCCCC1C (stereo not drawn) | 3.16 |
| CCOC(=O)c1cccc(NC(=O)CSc2nnc(C3CCCCC3)n2C)c1 | -40 |
| CC(=O)O.O=c1/c(=C\c2cccc(O)c2)sc2nc(-c3ccccc3)c(-c3ccccc3)n12 | 11 |
| CCOC(=O)c1c(N2C(=O)Nc3ccccc3N2O)sc2c1CCCCC2 | 4 |
| COc1ccc(N(CC(=O)Nc2cc(OC)ccc2OC)S(=O)(=O)c2c(C)nn(C)c2C)cc1 | -4.87 |
| O=[N+]([O-])c1cccc(S(=O)(=O)Nc2ccc(Cc3ccncc3)cc2)c1 | -72.2 |
| CN1CCc2nc(NC(=O)c3cccc(OC(F)F)c3)sc2C1 | 3.7 |
| COc1ccc(C2=NO[C@H]3C[C@](C(=O)NC(C)C)(S(=O)(=O)c4ccccc4)C[C@@H]23)cc1 | -4.9 |
| O=C(CSc1ncn[nH]1)c1ccc2c(c1)OCCO2 | 9.72 |
| Cc1c(CCO)c(=O)n(C)n1C(=O)c1ccc(F)cc1 | 2.6 |
| O=C(c1cccc(F)c1)n1nnc2ccccc21 | 19.3 |
| COC(=O)[C@H](C)NC(=O)N1CCC(Cc2ccccc2)CC1 | 1.88 |
| CC1CCc2cc(F)ccc2N1C(=O)c1cccnc1 (stereo not drawn) | 16.7 |
| C/C(Cl)=C/CN1C(=O)C2C3C=CC(C3)C2C1=O (stereo not drawn) | -7.68 |
